Source: the RNAGym collection of RNA variant scans (doi:10.1073/pnas.2313332121)
Variants at the background level are over-represented here.

B1: TPR 5TU (parent)
chain: GGAUCUUCUCGAUCUAACAAAAAAGACAAAUCUGCCACAAAGCUUGAGAGCAUCUUCGGAUGCAGAGGCGGCAGCCUUCGGUGGCGCGAUAGCGCCAACGUUCUCAACUAUGACACGCAAAACGCGUGCUCCGUUGAAUGGAGUUUAUCAUG

Variants of: B1
Test: polymerase ribozyme fitness, log enrichment relative to wild type (log ratio); higher = more active; in vitro selection for triplet polymerase activity
In short: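 Genotype fitness is the logarithm of its enrichment divided by wild-type enrichment, using inverse-variance-weighted averages of replicates. That logarithm is base 2. Enrichment was measured by Illumina sequencing of input and output libraries from one triplicate in vitro selection round, with frozen incubation at −7 °C, on PCR-built, transcribed mutant libraries of each subunit of a heterodimeric triplet polymerase ribozyme, retaining genotypes with ≥10 input reads and ≥1 read per output.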

Variant | polymerase ribozyme fitness (log ratio)
C14A U45A A49U U53G G83U C116G | ≤ -4.2
C14A U53A C96A C116A A150C U151A | ≤ -4.2
C14A U53A G94C | -3.67
C14A U55A C75U A120U | -2.39
C14A U55A U56A G70C U77G C85A G94A G126C U148A | ≤ -4.2
C14A U55A U56A G100C | ≤ -4.2
C14A U55G G74A C85U A107U C116G A121U U135A | ≤ -4.2
C14A U55G G83A G100U G126C U146G C149G | ≤ -4.2
C14A U56A C96U C99U U102G G136U U151A | ≤ -4.2
C14A U61G U111A A121C | ≤ -4.2
C14A U82A G92A | ≤ -4.2
C14A U82G C96G | -2.31
C14G A16C A23G A30U C43U C85A C99U C114U | ≤ -4.2
C14G A16G A19U A30C G59A G71A G74C U102A G140U | ≤ -4.2
C14G A16G A21C A37C A41G C63G G152A | ≤ -4.2
C14G A16U A39G G124A | ≤ -4.2
C14G A16U C32U A40G G50U U55A G58A A89G C95A C114A G141C | ≤ -4.2
C14G A16U G68A G80A C93U U104A | ≤ -4.2
C14G A17G A20U A24U C27U U90C C132U | ≤ -4.2
C14G A17G C27U C96G A122G G141C | ≤ -4.2
C14G A17U C54G C93A G100A A121C C123A U144G | ≤ -4.2

Variant | polymerase ribozyme fitness (log ratio)
C14G A19C | -1.66
C14G A19C G34U G86A G117A U151A | ≤ -4.2
C14G A19C U55G C57A U61C G86A A91G C93G C96U A106U A147U | ≤ -4.2
C14G A19G C54U C76G U82G A119G G128C U134C | ≤ -4.2
C14G A19G C85U G86C | ≤ -4.2
C14G A19G G42C U44G G59C C87A | ≤ -4.2
C14G A19U A30C G46A G50C C72U G74A A91C U139A | ≤ -4.2
C14G A19U A30U U31A A39C C54A A73U C99G A121C U139G | ≤ -4.2
C14G A20C A40C A89C | -4.13
C14G A20C C54U C85G G86U U135G U144A | ≤ -4.2
C14G A20C G46A G58A C63U C96U C108G G140C G143U | ≤ -4.2
C14G A20C G92C C125G | -3.88
C14G A20U A22C G25U A64C C75A U90C G141A G143C | ≤ -4.2
C14G A20U A28C G42A C103U A122U U145C U151A | ≤ -4.2
C14G A20U A39U U82A C87A G124A | ≤ -4.2
C14G A20U C105U C125G G140A | ≤ -4.2
C14G A20U U55A C85A C105U U134A | ≤ -4.2
C14G A21C C35A G112U | ≤ -4.2
C14G A21C C54A G67A G94U C123U | ≤ -4.2
C14G A21U A28G G81U C96G G140U U144A | ≤ -4.2
C14G A21U A40C U44A G67A C87U A107U | ≤ -4.2

Variant | polymerase ribozyme fitness (log ratio)
C14G A21U A52G C85A C118G G128A G141C | ≤ -4.2
C14G A22C G42U U45A C93A A138U | ≤ -4.2
C14G A22G A26C C54U G86A A91U G133C | ≤ -4.2
C14G A22G A26C C63U C99G G141A | ≤ -4.2
C14G A22U A39C A97U | ≤ -4.2
C14G A23C A30C C43G C76A G80C A107G A138G | ≤ -4.2
C14G A23C C32G U55C U90G C99U A121C A137G | ≤ -4.2
C14G A23C C38U C95G A98G A107G | ≤ -4.2
C14G A23C G25U A115G C116A A120U | ≤ -4.2
C14G A23C U45A G48C C69U G88A C114A C123A | ≤ -4.2
C14G A23G A52G U56A A91U A150G | ≤ -4.2
C14G A23U C35A C69U C93U | ≤ -4.2
C14G A23U G67C C79A C85G G143U | ≤ -4.2
C14G A23U G74U C87U C96A | ≤ -4.2
C14G A23U U31G U33C U45A G46U C57A G70C G94A A97C | ≤ -4.2
C14G A24C A41U A64U C76G U90C C99U | ≤ -4.2
C14G A24C A49G G92C | ≤ -4.2
C14G A24C C35U C57A G84U A97U | ≤ -4.2
C14G A24G C76A C87U C99A C125G | ≤ -4.2
C14G A24U | -3.18
C14G A24U A26G G50C C85U C103A A119G | ≤ -4.2

Variant | polymerase ribozyme fitness (log ratio)
C14G A24U C51A U61G G80C G94A | ≤ -4.2
C14G A24U G34A G42C G59A C87U A107G G141A A147G | ≤ -4.2
C14G A24U G70C A91C U127G | ≤ -4.2
C14G A24U U104C A120C A138U | ≤ -4.2
C14G A26G U56G A73U G143A | ≤ -4.2
C14G A26U C43G A60U A64G U77A G88C C116G | ≤ -4.2
C14G A26U U31G G50C G65A A122G | ≤ -4.2
C14G A28C G70A U127G U146G | ≤ -4.2
C14G A28G A52C C93A C108A | ≤ -4.2
C14G A29G A30G G70C C93G G124U | ≤ -4.2
C14G A29G G86A | ≤ -4.2
C14G A29G U33C A37U U111G G124U U134A | ≤ -4.2
C14G A29U A30G C96U | ≤ -4.2
C14G A29U A73G G86U C116A U135C | ≤ -4.2
C14G A30C A39G A110G | ≤ -4.2
C14G A30C A49C A52G C96G A98U | ≤ -4.2
C14G A30C U55G C85A G143C U144C | ≤ -4.2
C14G A30U | ≤ -4.2
C14G A30U U33G A49C A52U C72G A73G C87U U144G | ≤ -4.2
C14G A30U U61A G92A C99A | ≤ -4.2
